Assay results from PubChem BioAssay AID1845211 (Molecular Pharmacology Branch, DTP, NCI, 2023).
Certain results were filed several times, with different values. They are shown here; other results are not. An entry can have further records. Results that share an entry are repeats across runs, samples, wells, individuals or studies. Brackets with × give the number of equal values in this list. Each block holds one molecule with its values, some of them ahead of it.

System: NCI-H322M multicellular tumor spheroids, viability (% test/control)
Assay: Anticancer human tumor NCI-H322M cell line growth inhibition;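 as to viability, T/C: spheroids exposed to compound for seven days before readout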
Settings: for viability, T/C: stronger effect = lower value
Source text: Multicellular complex tumor spheroid response to DNA repair inhibitors in combination with DNA-damaging drugs
This study explores the anticancer activities of DNA-damaging drugs and inhibitors of DNA damage repair, both as single agents and in combinations. Complex tumor spheroids comprised of malignant cells, endothelial cells and mesenchymal stem cells served as an in vitro model for human solid tumors. This model system incorporates physiologically relevant features and patient-derived or established malignant cell lines with clinically relevant genetic alterations from many tumor types. Twenty-six patient-derived or established malignant cell lines were evaluated representing sarcoma, melanoma, small cell lung cancer (SCLC), non-small cell lung cancer (NSCLC), as well as bladder, ovarian and pancreatic cancers. The concentration ranges selected for each drug and investigational agent were based upon clinically achievable concentrations if the clinical Cmax of the agent was known.
Compounds. The drugs and compounds olaparib (NSC753686), talazoparib (NSC767125), berzosertib (NSC777718), elimusertib (NSC800525), nedisertib (NSC802822), VX-984 (NSC792969), AZD-1390 (NSC803789), temozolomide (NSC362856), topotecan (NSC609699), trabectedin (NSC813783), staurosporine (NSC755774), and gemcitabine (NSC613327) were obtained from the National Cancer Institute (NCI) Developmental Therapeutics Program Chemical Repository. The FDA-approved anticancer drug set is available from the Developmental Therapeutics Program at https://dtp.cancer.gov/organization/dscb/obtaining/available_plates.htm. […] The stock solutions were prepared in dimethyl sulfoxide (DMSO, Sigma-Aldrich, St. Louis, MO, cat. D2650) at 400-fold the tested concentration and stored at -70 degrees C. Prior to their use, the stock solutions were diluted in fresh medium and the final DMSO concentration in the assay was 0.25% (v/v). All drugs and investigational agents were tested over a range starting from a high concentration at or near the clinical Cmax and decreasing in half-log increments. If the clinical Cmax for an agent had not been determined, the highest concentration tested was 10 microM.
Cell Lines. The patient-derived cancer cell (PDC) lines: 156681-154-R-J1-PDC, 283228-195-R-J1-PDC, 287954-098-R-J1-PDC, 292921-168-R-J2-PDC, 349418-098-R-PDC, 425362-245-T-J1-PDC, 556581-035-R-J1-PDC, and BL0293-F563-PDC were received from the NCI Patient-Derived Models Repository (PDMR, https://pdmr.cancer.gov). The established cell lines HS-SY-2 (RRID:CVCL_8719), MPNST, and SYO-1 (RRID:CVCL_7146) were obtained from the Sloan Kettering Institute. The alveolar soft parts sarcoma cell line ASPS-1 (RRID:CVCL_S738) was established at the NCI and grown from internal seed stocks. The following established cell lines were purchased from the American Type Culture Collection (ATCC, Manassas, VA): G-401 (ATCC, cat. CRL-1441, RRID:CVCL_0270), SW982 (ATCC, cat. HTB-93, RRID:CVCL_1734), VA-ES-BJ (ATCC, cat. CRL-2138, RRID:CVCL_1785), NCI-H719 (ATCC, cat. CRL-5837, RRID:CVCL_1582), NCI-H196 (ATCC, cat. CRL-5823, RRID:CVCL_1509), NCI-H841 (ATCC, cat. CRL-5845, RRID:CVCL_1595), NCI-H1618 (ATCC, cat. CRL-5879, RRID:CVCL_1480), NCI-H1876 (ATCC, cat. CRL-5902, RRID:CVCL_1503), DMS 114 (ATCC, cat. CRL-2066; RRID:CVCL_1174), NCI-H211 (ATCC, cat. CRL-5824; RRID:CVCL_1529), and SW 1271 (ATCC, cat. CRL-2177, RRID:CVCL_1716). The small cell lung cancer cell line COR-L88 was purchased from Sigma-Aldrich (cat. 92031917-1VL, RRID:CVCL_1141). The non-small cell lung cancer cell lines NCI-H226 (RRID:CVCL_1544) and NCI-H322M (RRID:CVCL_1557) were established at the NCI and grown from internal seed stocks. Pooled donor human umbilical vein endothelial cells (HUVEC, Lonza, cat. CC-2519) and human mesenchymal stem cells (hMSC, Lonza, cat. PT-2501) were purchased from Lonza (Walkersville, MD).
Cell Culture. All cells were maintained in an incubator at 37 degrees C and 5% CO2 with 95% humidity. […]

IC50 (compound alone, run of 12/02/2019): 219 nM, 277 nM, > 300 nM, 258 nM
SMILES: CC[C@@]1(O)C(=O)OCc2c1cc1n(c2=O)Cc2cc3c(CN(C)C)c(O)ccc3nc2-1
viability, T/C (compound alone 0.00949 µM): 80.9, 91.8, 95.6, 94.1, 75.5, 82.9, 68.2, 76, 94.3, 70.2%
viability, T/C (compound alone 0.03 µM): 79.1, 84.1, 86, 91.7, 67.7, 83, 62.5, 72.2, 75, 75.7%

SMILES: COc1cc2c(cc1O)CCNC21CSC2c3c(OC(C)=O)c(C)c4c(c3C(COC1=O)N1C(O)C3Cc5cc(C)c(OC)c(O)c5C(C21)N3C)OCO4 (stereo not given)
viability, T/C (compound 30 pM): 85.5, 76.5, 76.8, 88.8, 103, 76 (2×), 77.4, 94.7, 82.1%
viability, T/C (compound alone 0.000949 µM): 95.2, 82.8, 91.3, 75.3, 75.2, 70.6, 81.5, 73, 87.8, 56.8%

SMILES: Cn1nnc2c(C(N)=O)ncn2c1=O
viability, T/C (compound alone 1 µM): 90.5 (2×), 104, 96.9, 85.6, 89.6, 101, 113, 98.4, 91.3%
viability, T/C (compound alone 3.16 µM): 86.8, 92.5, 75.4, 85.7, 98.3, 105, 96, 99.4, 90.6, 88.6%
viability, T/C (compound alone 10 µM): 92.2, 89.8, 71.1, 83.2, 99.6, 90.1, 103, 93.2, 81.4, 71.9%
viability, T/C (compound alone 31.6 µM): 82, 99.1, 89.5, 79.3, 94.4, 92.3, 107, 92.1, 94.8, 96.2%
viability, T/C (compound alone 100 µM): 89.2, 110, 99.5, 92.2, 119, 106, 95.1, 102, 86.5, 81%
